# Source: paper PMC4336329 (PLoS ONE, 2015)
# Among all 310,000 compounds or so, about 2,200 (0.71%) showed an effect of 50% or more. The effect is printed as a negative number. The list shows a part of the results.
# Biological target: human ether-à-go-go-related gene (hERG) potassium channel (human, UniProt Q12809)
# Assay: primary screen, population patch clamp on CHO cells stably expressing hERG
# human ether-à-go-go-related gene (hERG) potassium channel, sequence (Q12809 whole entry, looked up): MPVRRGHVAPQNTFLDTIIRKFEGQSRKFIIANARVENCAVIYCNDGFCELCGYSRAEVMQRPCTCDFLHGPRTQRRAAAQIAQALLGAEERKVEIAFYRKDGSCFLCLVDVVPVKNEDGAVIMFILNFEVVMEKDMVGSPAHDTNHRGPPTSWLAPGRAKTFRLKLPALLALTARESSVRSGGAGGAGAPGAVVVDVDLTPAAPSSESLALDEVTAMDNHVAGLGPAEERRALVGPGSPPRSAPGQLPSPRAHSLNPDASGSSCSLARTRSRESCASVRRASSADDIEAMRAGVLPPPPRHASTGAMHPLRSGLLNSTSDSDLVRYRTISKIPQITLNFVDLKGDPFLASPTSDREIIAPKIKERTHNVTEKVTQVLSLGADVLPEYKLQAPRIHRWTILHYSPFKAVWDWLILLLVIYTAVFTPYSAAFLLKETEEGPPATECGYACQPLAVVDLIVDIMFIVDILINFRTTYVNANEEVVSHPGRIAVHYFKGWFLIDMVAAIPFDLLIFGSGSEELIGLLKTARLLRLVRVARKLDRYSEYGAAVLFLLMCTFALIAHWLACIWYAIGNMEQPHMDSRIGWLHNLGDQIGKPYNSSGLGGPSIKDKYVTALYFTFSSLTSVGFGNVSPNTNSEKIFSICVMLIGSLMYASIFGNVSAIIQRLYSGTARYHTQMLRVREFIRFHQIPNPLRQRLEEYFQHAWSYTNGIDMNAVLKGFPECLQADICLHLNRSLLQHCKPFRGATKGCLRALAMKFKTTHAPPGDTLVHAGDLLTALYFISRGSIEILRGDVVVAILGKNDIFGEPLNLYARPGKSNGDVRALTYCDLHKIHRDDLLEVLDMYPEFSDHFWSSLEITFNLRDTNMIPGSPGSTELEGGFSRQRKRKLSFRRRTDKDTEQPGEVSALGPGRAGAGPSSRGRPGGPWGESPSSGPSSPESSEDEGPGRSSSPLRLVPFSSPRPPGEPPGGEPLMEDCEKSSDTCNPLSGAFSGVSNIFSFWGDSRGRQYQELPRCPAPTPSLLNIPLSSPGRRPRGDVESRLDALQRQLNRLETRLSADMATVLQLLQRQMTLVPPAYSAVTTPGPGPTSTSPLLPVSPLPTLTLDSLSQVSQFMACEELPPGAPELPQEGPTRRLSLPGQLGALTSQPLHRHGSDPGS
row,Compound,"hERG current change (%, negative = inhibition) at 1uM [%]"
1,Cc1ccc(Nc2ncc(C(=O)NCCCN3CCN(C)CC3)c3ccccc23)cc1Cl,-7.58
2,Cc1cc(C(=O)COC(=O)C2=NNC(=O)CC2)c(C)n1-c1ccc(OC(F)F)cc1,-6.14
3,COc1ccc(NS(=O)(=O)c2ccc3ccccc3c2)c2ncccc12,11.9
4,CNC(=S)Nc1ccc2[nH]c(=O)[nH]c2c1,17.9
5,C/C(N)=C(/C#N)C(=O)COC(=O)c1cccc2ccccc12,1.84
6,CC(C)Nc1nc(C#N)nc(NC(C)C)n1,19.8
7,COc1ccc(NC(=O)Nc2nnc(Cc3ccc(F)cc3)s2)cc1,17
8,CCn1nnnc1-c1ccc(OC)c(S(=O)(=O)NCCc2ccccc2)c1,6.8
9,Cc1ccc(S(=O)(=O)NCCSc2ccccc2)cc1[N+](=O)[O-],7.44
10,CCC(=O)N1CCc2cc(S(=O)(=O)CCC(=O)Nc3nc(C)cs3)ccc21,7.89
11,Cc1cc(F)c(F)c(C(=O)N2C(C)CCCC2C)c1Cl (stereo not shown),6.46
12,CCCCC(=O)Nc1cc(N(C)C)nc2ccccc12,-30.7
13,CCOC(=O)c1c(C)n(C)c2c1cc(OC(C)=O)c1ccccc12,13.8
14,Clc1ccccc1CSc1nc2ccncc2[nH]1,6.59
15,COc1ccccc1C1=NOC(COC(=O)c2ccc([N+](=O)[O-])cc2)C1 (stereo not shown),3.07
16,Cc1ccc(CNC(=O)CCC2CCCN(C(=O)CCC(F)(F)F)C2)o1 (stereo not shown),11
17,COc1cccc(NC(=O)C2Cc3ccccc3CN2C(=O)c2ccco2)c1 (stereo not shown),6.42
18,C[C@@H]1C=CC(=O)O[C@@H]1c1ccc(Cl)cc1,9.25
19,CCOC(=O)c1ccc(S(=O)(=O)NCC(C)(C)N2CCOCC2)cc1.Cl,6.6
20,O=C(CCCN1C(=O)CCC1=O)Nc1ccc(Br)cc1F,-2.6

row,Compound,"hERG current change (%, negative = inhibition) at 1uM [%]"
1,NC(=S)NNC(=O)Nc1cccc(Cl)c1,14.2
2,COc1ccc(C(C)(C)NC(=O)C2CCC(=O)N(C3CC3)C2)cc1OC (stereo not shown),15.6
3,O=C1C=C(O)C(n2cncn2)C(c2ccc(F)cc2)C1 (stereo not shown),-9.66
4,c1ccc(-c2onc(-c3ccco3)c2-c2ccc3c(c2)OCO3)cc1,7.39
5,CCCCc1nnc(NC(=O)C2=COCCO2)s1,9.73
6,CCNC(=S)N1CCC(c2nc3cc(C)c(C)cc3[nH]2)CC1.O=C(O)C(=O)O,7.77
7,C=C[C@@H]1c2cc(C)ccc2N(S(=O)(=O)c2ccc(C)cc2)[C@H](c2ccccc2C(F)(F)F)C1(C#N)C#N,12.5
8,CCn1cc(CCCC(=O)NCc2cccc(OC)c2)c2ccccc21,13.3
9,O=C(c1cc(F)cc2c1OCOC2)N1CCN(c2ccc(F)cc2)CC1,6.06
10,O=[N+]([O-])c1cc(Cl)cc(/C=N/NC(=S)Nc2ccc(S(=O)(=O)N3CCOCC3)cc2)c1O,6.18
11,Cc1cc(C)n(-c2cc(N3CCN(S(=O)(=O)c4ccc(C)c(C)c4)CC3)ccc2[N+](=O)[O-])n1,18
12,Cc1nn(C(C)CC(=O)O)c(C)c1C (stereo not shown),10.3
13,Cc1ccc(Cl)c(Cn2cnc3c(cnn3C(C)(C)C)c2=O)c1F,18.9
14,CNC(=O)c1c(Cl)cnn1-c1ccc(F)cc1,8.38
15,COCCn1c(SCC(=O)Nc2c(C)n(C)n(-c3ccccc3)c2=O)nc2ccccc2c1=O,1.25
16,C[C@@H]1CC2OC(=O)[C@@]3(C)C(=O)CC[C@@](C)(C23)[C@@]1(O)CCc1ccoc1 (stereo partly shown),12.8
17,C1CSC2(N1)C1CC3CC(C1)CC2C3.Cl (stereo not shown),6.29
18,O=c1cc(-c2ccccc2)n(S(=O)(=O)c2ccc3ccccc3c2)o1,4.78
19,N#CCCN1CCN(C(CNS(=O)(=O)c2ccc(Cl)cc2)c2ccccc2)CC1 (stereo not shown),-10.8
20,CC(C)Oc1ccc(Cc2c(O)nc(NCCCN(C)C)[nH]c2=O)cc1,5.21

row,Compound,"hERG current change (%, negative = inhibition) at 1uM [%]"
1,COc1ccc(N(C)C(=O)c2oc(=O)c3ccccc3c2-c2ccc(C)cc2)c(OC)c1,3.27
2,CC(Oc1ccc(C(C)(C)C)cc1)C(=O)NC1CC(C)(C)NC(C)(C)C1 (stereo not shown),2.21
3,C(=N\Nc1ncnc2ccccc12)/c1ccccc1,6.49
4,CCCCC1=NN(C(=O)c2ccncc2)C(O)(C(F)(F)F)C1 (stereo not shown),14.7
5,CC(=O)Nc1ccc(S(=O)(=O)NCC(=O)OCC(=O)Nc2sccc2C(N)=O)cc1,5.87
6,CCOC(=O)COc1ccc(C2NC(C(=O)O)CS2)cc1 (stereo not shown),17.6
7,Cc1cc(C)nc(CCNC(=O)c2cc(COc3c(C)cccc3C)on2)n1,-2.06
8,CCOc1ccc(NC(=O)CN(C)C(=O)CCNC(=O)c2ccc(Br)cc2)cc1OCC,-10.4
9,Cc1cc(C)c(S(=O)(=O)c2ccccc2C)c(N(C)C)n1,15.6
10,CCCNC(=O)CN(C1CCCCC1)S(C)(=O)=O,19.8
11,C=C1C(=O)[C@@]23C[C@H]4[C@@H]5[C@@]6(C)CCC[C@@]57[C@@H]2[C@@H](O)[C@@H]1C[C@H]3[C@H]7N4C6,13.2
12,CCCNC(=S)Nc1ccc(F)cc1F,13.7
13,CC1CCCCC1NC(=O)COc1ccccc1C#N (stereo not shown),5.57
14,CC1=C(C)CC(C(=O)N2CCN(C/C=C/c3ccccc3)CC2)C(C(=O)O)C1 (stereo not shown),10.8
15,CN(Cc1cnn(C)c1)C(=O)c1cc2ccccc2oc1=O,4.52
16,CC(Oc1ccc(Cl)cc1)c1ccn[nH]1 (stereo not shown),14
17,CO/N=C(/c1nonc1N)N1CCN(c2ccc([N+](=O)[O-])cc2)CC1,1.65
18,COC(=O)c1cc(C)sc1NC(=O)c1cccnc1,15.4
